Consider 44 molecules from paper PMC4336329 (PLoS ONE, 2015).

The campaign covered roughly 310,000 compounds. About 2,200 (0.71%) showed an effect of 50% or more. Effects have a minus sign here. The list shows a part of the results.

human ether-à-go-go-related gene (hERG) potassium channel, sequence (Q12809 whole entry, looked up): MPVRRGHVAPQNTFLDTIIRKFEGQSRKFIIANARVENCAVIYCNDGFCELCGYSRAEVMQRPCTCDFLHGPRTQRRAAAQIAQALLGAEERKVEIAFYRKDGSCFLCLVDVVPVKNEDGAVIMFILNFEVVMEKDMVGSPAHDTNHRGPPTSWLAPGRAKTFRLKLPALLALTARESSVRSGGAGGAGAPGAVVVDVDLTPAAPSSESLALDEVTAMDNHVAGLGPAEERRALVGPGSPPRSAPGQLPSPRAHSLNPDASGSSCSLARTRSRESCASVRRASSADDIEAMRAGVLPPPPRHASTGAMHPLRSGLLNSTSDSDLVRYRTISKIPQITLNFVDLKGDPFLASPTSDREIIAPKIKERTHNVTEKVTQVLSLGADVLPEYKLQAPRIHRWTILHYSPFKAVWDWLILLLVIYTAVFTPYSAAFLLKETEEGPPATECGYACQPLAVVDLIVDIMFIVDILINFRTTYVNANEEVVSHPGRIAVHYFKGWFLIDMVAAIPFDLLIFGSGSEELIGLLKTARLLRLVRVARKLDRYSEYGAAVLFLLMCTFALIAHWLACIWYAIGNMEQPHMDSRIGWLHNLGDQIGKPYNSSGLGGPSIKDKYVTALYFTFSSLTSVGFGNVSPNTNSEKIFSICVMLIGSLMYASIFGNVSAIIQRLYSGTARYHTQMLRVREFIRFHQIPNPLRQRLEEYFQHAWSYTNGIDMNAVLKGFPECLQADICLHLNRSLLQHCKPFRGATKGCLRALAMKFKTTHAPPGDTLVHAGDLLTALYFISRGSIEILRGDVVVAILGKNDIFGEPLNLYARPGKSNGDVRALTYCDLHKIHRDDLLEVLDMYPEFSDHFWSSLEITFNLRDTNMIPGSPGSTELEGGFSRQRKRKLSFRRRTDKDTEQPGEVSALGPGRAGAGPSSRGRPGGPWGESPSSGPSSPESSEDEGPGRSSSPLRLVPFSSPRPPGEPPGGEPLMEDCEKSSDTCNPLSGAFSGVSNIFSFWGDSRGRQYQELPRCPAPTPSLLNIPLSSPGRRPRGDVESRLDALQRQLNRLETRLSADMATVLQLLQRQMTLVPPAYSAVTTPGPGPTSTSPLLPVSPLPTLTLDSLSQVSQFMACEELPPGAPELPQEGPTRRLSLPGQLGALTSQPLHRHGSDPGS

This test concerns the target human ether-à-go-go-related gene (hERG) potassium channel (human, UniProt Q12809). The experiment in a line: primary screen, population patch clamp on CHO cells stably expressing hERG.
For `O=C(Nc1cccnc1)c1cc2nc(C3CC3)cc(C(F)(F)F)n2n1`, the “hERG current change (%, negative = inhibition) at 1uM” value came to 8.19%.
In the case of `CN(C)CCCNS(=O)(=O)c1ccc(NC2CCCCCC2)c([N+](=O)[O-])c1`, the “hERG current change (%, negative = inhibition) at 1uM” value was determined as 7.18%.
The figure for `CCOc1ccc(NC(=O)COn2nnc3ccc(S(=O)(=O)N4CCOCC4)cc32)cc1` is 2.89%; for `Cc1cccc(Nc2nc(N)c([N+](=O)[O-])c(NCc3ccco3)n2)c1` it is 11.7%; for `COc1cccc(-c2cccc(NC(=O)C3CCN(C4CCOCC4)CC3)c2)c1` it is -14.6%.
The figure for `Cc1ccc(CNC(=O)Nc2ccc(Cl)cc2)cc1` is 15.8%; for `CC(C)CCNC(=O)/C=C/c1ccc(Br)cc1` it is 8.76%.
`CCOC(=O)c1c(N)n[nH]c1-c1ccccc1`: the “hERG current change (%, negative = inhibition) at 1uM” value was 16.2%.
With `COc1ccc(N(C)C(=O)c2cn(CC(C)C)c(=O)c3cc(OC)c(OC)cc23)c(OC)c1`, the “hERG current change (%, negative = inhibition) at 1uM” value is 7.71%.
As to `CC(C)[C@H](NC(=O)c1ccco1)C(=O)OCc1cc(=O)n2c(n1)sc1ccccc12`, the “hERG current change (%, negative = inhibition) at 1uM” value is reported as 3.21%.
The figure for `COc1cc2c(cc1C1NC(=S)NC(C)=C1C(=O)N(C)C)CCCC2` (centres unmarked) is -5.53%; for `CC(C)C(=O)O/N=C(\N)c1ccccn1` it is 3.94%.
The figure for `CC(Sc1n[nH]c(N)n1)C(=O)Nc1cccc(S(=O)(=O)N2CCOCC2)c1` (centres unmarked) is 21.9%; for `CCN(CC)S(=O)(=O)c1cccc(-c2nnc(SC(C)C(N)=O)n2CCc2ccccc2)c1` (centres unmarked) it is 0.698%; for `O=S(=O)(c1ccccc1)c1cnc(-c2cccnc2)nc1-c1ccccc1` it is 2.96%.
The figure for `Brc1c(C[n+]2ccccc2)nc2ccccn12.[Br-]` is 12.7%; for `Cc1ccc(NCC(=O)Nc2ccc(Br)cc2)cc1C` it is 10.5%; for `CC(C)(C)c1cc(NC(=O)Nc2ccccc2)no1` it is 9.69%.
For the molecule `C=CCNS(=O)(=O)c1nc(C)c(Cl)c(C)c1C#N`, the “hERG current change (%, negative = inhibition) at 1uM” value came out at 6.93%.
The figure for `CNC(=O)c1nn(-c2ccc(Cl)cc2)ccc1=O` is 10.2%; for `O=C(NCc1ccccc1CN1CCCC1)C1CCN(S(=O)(=O)c2ccc(F)c(F)c2)CC1` it is -8.52%.
In the case of `CSc1ncccc1C(=O)Nc1ccc(S(=O)(=O)N2CCCC2)cc1`, the “hERG current change (%, negative = inhibition) at 1uM” value is listed as -16.8%.
The figure for `O=c1[nH]c(CSc2nc3ccccc3o2)nc2c1cnn2-c1ccccc1` is 0.461%.
Turning to `Cc1ccc(CNC(=O)C2CCCN2C(=O)Nc2ccccc2)cc1` (centres unmarked), the “hERG current change (%, negative = inhibition) at 1uM” value was found to be 7.54%.
Take `COc1ccc(NC(=S)NCc2ccco2)cc1`: the “hERG current change (%, negative = inhibition) at 1uM” value was 10.9%.
The figure for `O=C(NC(NC(=O)c1ccccc1)c1ccccc1)c1ccccc1` is -0.669%; for `CCn1nccc1C(=O)Nc1cccc(C)c1C` it is 10.9%.
With `CC(=O)Nc1ccccc1C(=O)C(=O)NCCc1ccccc1`, the “hERG current change (%, negative = inhibition) at 1uM” value is listed as 0.193%.
The figure for `Cc1c(Cl)ccc2c(C(=O)NC(C)c3ccncc3)cc(-c3ccncc3)nc12` (centres unmarked) is -8.77%; for `CCC(C)NC(=O)CN(c1ccc(OC)cc1)S(=O)(=O)c1ccccc1` (centres unmarked) it is 17.8%.
For the molecule `Cc1cccc(NC(=O)Cn2c(C)c(C#N)c3ccccc32)c1C`, the “hERG current change (%, negative = inhibition) at 1uM” value turned out to be 12%.
The figure for `CCOc1ccc2c(c1)nc(NCCCO)n2Cc1ccccc1` is -0.641%.
As for `CC1=C(C(=O)OCc2ccccc2)C(c2ccc([N+](=O)[O-])cc2)NC(=O)N1CCCC(=O)O` (centres unmarked), the “hERG current change (%, negative = inhibition) at 1uM” value is given as 10.8%.
For `Cc1nn(C)c(C)c1S(=O)(=O)N1CCCC(C(=O)NCC2COc3ccccc3O2)C1` (centres unmarked), the “hERG current change (%, negative = inhibition) at 1uM” value amounted to 4.83%.
The figure for `COc1cc2c(c(OC)c1OC)-c1c(cc3c(c1OC)OCO3)C[C@H](C)[C@@](C)(O)C2` is 17.5%; for `O=C1CCCCCCCN1Cc1ccccc1` it is 15.9%; for `C=CCn1cc(C(=O)NCC2CCCO2)c(=O)c2cc(S(=O)(=O)N3CCCCCC3)ccc21` (centres unmarked) it is -4.58%.
Take `Cc1csc(NC(=O)CSc2nnc(-c3ccncc3)o2)n1`: the “hERG current change (%, negative = inhibition) at 1uM” value is 11.1%.
For the molecule `CC(C)NCc1nnc(-c2ccccc2Cl)o1`, the “hERG current change (%, negative = inhibition) at 1uM” value was determined as 14%.
The figure for `CCCNC(=O)COc1coc(CN2CCN(c3ccccc3OC)CC2)cc1=O` is -1.03%.
In the case of `Cc1ccc(-c2csc3ncnc(N4CCc5ccccc5C4)c23)cc1`, the “hERG current change (%, negative = inhibition) at 1uM” value amounted to 9.72%.
As to `Cc1cc(C)nc(NS(=O)(=O)c2ccc(CC(C)C)cc2)c1`, the “hERG current change (%, negative = inhibition) at 1uM” value is reported as 6.26%.
Turning to `Cc1nn(S(=O)(=O)c2cccc([N+](=O)[O-])c2)c(C)c1Br`, the “hERG current change (%, negative = inhibition) at 1uM” value turned out to be 15.4%.
The figure for `CCOC(=O)C1(CCOc2ccccc2)CCN(Cc2ccncc2)CC1` is -23.5%.
